Reference: a collection of fitness landscapes (doi:10.1126/science.1257360)
Some of the results follow.

B1: PhoQ; a variant is named by its letters at X, in order, P23837 (parent)
chain: MKKLLRLFFPLSLRVRFLLATAAVVLVLSLAYGMVALIGYSVSFDKTTFRLLRGESNLFYTLAKWENNKLHVELPENIDKQSPTMTLIYDENGQLLWAQRDVPWLMKMIQPDWLKSNGFHEIEADVNDTSLLLSGDHSIQQQLQEVREDDDDAEMTHSVAVNVYPATSRMPKLTIVVVDTIPVELKSSYMVWSWFIYVLSANLLLVIPLLWVAAWWSLRPIEALAKEVRELEEHNRELLNPATTRELTSLVRNLNRLLKSERERYDKYRTTLTDLTHSLKTPLXXLQXXLRSLRSEKMSVSDAEPVMLEQISRISQQIGYYLHRASMRGGTLLSRELHPVAPLLDNLTSALNKVYQRKGVNISLDISPEISFVGEQNDFVEVMGNVLDNACKYCLEFVEISARQTDEHLYIVVEDDGPGIPLSKREVIFDRGQRVDTLRPGQGVGLAVAREITEQYEGKIVAGESMLGGARMEVIFGRQHSAPKDE

Variants of: B1
Experiment: enrichment ratio after two sorts for PhoP signalling (ratio (wild type AVST 3.29)); higher = more functional
Conditions: with PhoP (E. coli)

Variant | enrichment ratio
RASH | ≤ 0.25
TAAG | 9.44
RKWF | ≤ 0.25
KKYF | ≤ 0.25
SEPY | ≤ 0.25
SVRF | 0.324
HRAD | ≤ 0.25
DVDH | ≤ 0.25
WKAF | ≤ 0.25
FLCD | ≤ 0.25
KGPQ | ≤ 0.25
RNFE | ≤ 0.25
PCDD | ≤ 0.25
DVEV | ≤ 0.25
WRFW | ≤ 0.25
QEWS | 13.4
NNVN | ≤ 0.25
FMAQ | ≤ 0.25
LGSH | ≤ 0.25
QYQW | ≤ 0.25
NNAQ | ≤ 0.25
EPHN | ≤ 0.25
WGAW | ≤ 0.25
IVIM | ≤ 0.25
IMMI | ≤ 0.25
TMVQ | ≤ 0.25

Variant | enrichment ratio
NRII | ≤ 0.25
FATW | ≤ 0.25
DMCS | ≤ 0.25
DPPY | ≤ 0.25
NSHD | ≤ 0.25
LRGS | ≤ 0.25
NMQS | ≤ 0.25
FRFR | ≤ 0.25
SYGN | ≤ 0.25
YWFI | ≤ 0.25
KIWD | ≤ 0.25
LANC | ≤ 0.25
SMCE | 11.7
ERVF | ≤ 0.25
YDPC | ≤ 0.25
NPQY | ≤ 0.25
GSDA | ≤ 0.25
KTIY | ≤ 0.25
SHQN | ≤ 0.25
EANV | ≤ 0.25
NNLN | ≤ 0.25
SRKM | ≤ 0.25
SYNC | ≤ 0.25
VKPV | ≤ 0.25
RSGI | ≤ 0.25
LWRP | ≤ 0.25

Variant | enrichment ratio
MHRY | ≤ 0.25
VHSI | ≤ 0.25
GTCM | 5.28
QVMG | ≤ 0.25
PKKV | ≤ 0.25
TPTG | ≤ 0.25
EMCP | ≤ 0.25
QYMG | ≤ 0.25
ELQA | ≤ 0.25
HWRR | ≤ 0.25
LVLL | ≤ 0.25
WEGF | ≤ 0.25
FKNI | ≤ 0.25
PKPH | ≤ 0.25
LLGR | ≤ 0.25
TQCI | 16
YHFD | ≤ 0.25
KFLL | ≤ 0.25
VNMI | 5.18
KCLS | ≤ 0.25
NVWM | ≤ 0.25
PFGQ | ≤ 0.25
QYCS | ≤ 0.25
KQHY | ≤ 0.25
